Assay [1] deals with Syndecan-binding protein (SDCBP), endogenous in ESCC cells (human (endogenous in KYSE450 and KYSE30)) (UniProt O00560). Put plainly: co-IP; KYSE450 cell lysates immunoprecipitated with anti-SDCBP, immunoblotted; cells untreated or treated with the indicated drugs at 100 μM.
Assay [2] shares this target. Kind of assay: condition: only cells treated with 100 μM dexrazoxane; co-IP; KYSE450 cells treated with 100 μM dexrazoxane; lysates immunoprecipitated with anti-SDCBP, immunoblotted. A general note: In western blotting, separated proteins are transferred to a membrane and probed.
The target is the same in assay [3]. Put plainly: condition: only cells treated with 100 μM zalcitabine; co-IP; KYSE450 cells treated with 100 μM zalcitabine; lysates immunoprecipitated with anti-SDCBP, immunoblotted.
The target in assay [4] is EGFR, endogenous in ESCC cells (human (endogenous in KYSE450 and KYSE30)) (UniProt P00533). Put plainly: co-IP; KYSE450 and KYSE30 cells treated with 0, 25 and 50 μM dexrazoxane for 24 h; lysates immunoprecipitated with anti-EGFR overnight at 4 °C, protein A/G agarose, Western blot.
In assay [5] the target is exogenous EGFR (transfected into HEK293T cells) (UniProt P00533). Kind of assay: co-IP; HEK293T cells transfected with SDCBP and EGFR; lysates immunoprecipitated with anti-Flag or anti-HA overnight at 4 °C, protein A/G agarose, Western blot.
Assay [6] shares this target. Put plainly: condition: only cells treated with dexrazoxane (25 and 50 μM for 24 h); co-IP; HEK293T cells transfected with SDCBP and EGFR and treated with dexrazoxane (25 and 50 μM for 24 h); lysates immunoprecipitated with anti-Flag or anti-HA, Western blot.

Amino acid sequences for entries named in this document (tags omitted).
UniProt O00560: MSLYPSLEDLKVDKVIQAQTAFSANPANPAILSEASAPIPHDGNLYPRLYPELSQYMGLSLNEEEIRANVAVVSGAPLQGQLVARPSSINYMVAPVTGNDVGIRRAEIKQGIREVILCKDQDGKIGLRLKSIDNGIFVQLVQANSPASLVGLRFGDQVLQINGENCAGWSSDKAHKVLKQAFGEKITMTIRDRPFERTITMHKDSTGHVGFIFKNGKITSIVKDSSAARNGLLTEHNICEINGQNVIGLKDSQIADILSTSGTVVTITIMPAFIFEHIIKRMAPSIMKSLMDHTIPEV

No constants are given. Whether binding was seen depends on the method and setting. In cells and extracts the contact can be indirect. Some binding calls cover weakened binding; strength is not graded here.

Consider “EGFR, endogenous in ESCC cells (from UniProt P00533 25-1210) (receptor)”, for which the figures for the binding result in assay [1], in assay [2] and in assay [3] were “binds”, “no binding” and “no binding”, respectively.

“Syndecan-binding protein (SDCBP), endogenous in ESCC cells (from UniProt O00560 1-298)”: the binding entry in assay [4] is “binds”.

Consider “exogenous SDCBP (transfected into HEK293T cells) (from UniProt O00560 1-298)”, for which the results for the binding result in assay [5] and in assay [6] were “binds” and “no binding”, respectively.

The values are drawn from article PMC11035576.
